Results from PubChem BioAssay AID686978 (National Center for Advancing Translational Sciences (NCATS), 2013).
Among all 420,000 compounds or so, about 64,000 (15%) were called active. The shares of active, inactive and inconclusive entries below differ from those in the screen. Calls come from the whole dose curve; as a rule, active = well fitted inhibition curve with a large enough effect; inconclusive = small, poorly fitted or top-dose-only effect; inactive = flat fitted curve, though single readings scatter. Potencies of inconclusive entries are left out as doubtful fits.
% is set by controls: 0 for no effect and ±100 for the full control effect; potency is the fitted concentration of half-maximal effect; tags give direction and shape of the fitted curve.

Test: qHTS for Inhibitors of human tyrosyl-DNA phosphodiesterase 1 (TDP1): qHTS in cells in absence of CPT; note: nearly all actives have a fitted effect of over 55% in size
Settings: DT40 Tdp1-/- hTDP1 cells, no CPT, ATP luminescence, 48 h; activity change, negative = growth inhibition: at 46.2 µM (top of the series) unless noted
In short: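 DT40 Tdp1-/-;hTDP1 cells, no CPT (DMSO vehicle only), 400 cells/well; compounds pin-transferred; ≥48 hr, 37 °C; CellTiter-Glo 30 min RT dark, luminescence read.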
For O=C(COC(=O)c1ccccc1SCC(=O)N1CCCC1)NCc1ccccc1, the “activity change, negative = growth inhibition” value was inactive: -22.2%.
With O=C(Nc1ccc2oc(-c3cccc4c(Br)cccc34)nc2c1)c1ccc(F)cc1 the Potency was active: 10.3 µM.
With CCC(NC(=O)C1CCCO1)c1ccccc1 (centres undefined) the Potency was inconclusive [inhibitor, single point].
For COc1cccc(N2CCN(C(=O)c3ccc4ccccc4c3)CC2)c1, the Potency was inconclusive [inhibitor, single point].
For COc1ccc(OC)c(S(=O)(=O)CC(O)CS(=O)(=O)c2ccccc2)c1 (centres undefined), the “activity change, negative = growth inhibition” value was inactive: -26.7%.
With C[C@H]1CN([C@@H](C)CO)C(=O)c2cc(Br)cnc2O[C@@H]1CN(C)S(C)(=O)=O the Potency was inconclusive [inhibitor, single point].
For Cc1ccc(NC(=O)c2ccc3c(c2)OCCO3)cc1C, the Potency was inconclusive [inhibitor, partial curve].
For Cc1cc2nc(-c3ccc(SCC(=O)N4CCOCC4)nc3)[nH]c2cc1C, the Potency was inconclusive [inhibitor, partial curve].
For CC(=O)c1cccc(-c2ccc3c(c2)C(C)(Cc2ccccc2C#N)C(=O)N3)c1 (centres undefined), the Potency was inconclusive [inhibitor, single point].
In the case of CCc1ccc(NC(=O)c2cccnc2)cc1, the “activity change, negative = growth inhibition” value is reported as inactive: -7.09%.
With CCCCn1c(=O)n(C)c(=O)c2c3c(sc21)COC(C)(C)C3 the Potency was inconclusive [inhibitor, partial curve].
For O=C(CCCCCN1C(=O)c2cccc3cccc(c23)C1=O)NCCCO, the “activity change, negative = growth inhibition” value was inactive: -4.35%.
With Nc1nonc1-n1nnc(C(=O)N/N=C/c2ccccc2O)c1CN1CCCC1 the Potency was inconclusive [inhibitor, single point].
For COC(=O)c1sc(=S)n(-c2cccc(Cl)c2)c1N, the activity change, negative = growth inhibition was inconclusive: -33.2% [inhibitor].
In the case of Cc1ccc(C(C(=O)NCCc2ccccc2)N(C(=O)c2csnn2)C2CC2)cc1 (centres undefined), the Potency is reported as inconclusive [inhibitor, single point].
In the case of Cn1cc(-c2nc3cnc(N4CCNCC4)nc3n(CCc3ccccc3)c2=O)c2ccccc21, the Potency is reported as inconclusive [inhibitor, single point].
For Cc1ccc2sc(NC(=O)CSc3nc(C)cc(C)c3C#N)nc2c1, the activity change, negative = growth inhibition was inconclusive: -30.3% [inhibitor].
With CCCCOCCCNC(=O)C[C@@H]1C[C@@]2(C(=O)OCC)CCC=C2N(Cc2ccco2)C1=O the “activity change, negative = growth inhibition” value was inactive: -21.8%.
In the case of c1ccc(CNc2nc(N3CCN(Cc4ccccc4)CC3)nc3ccccc23)cc1, the Potency is reported as active: 16.4 µM.
With CC1(c2ccccc2)NC(=O)N(CC(=O)Nc2ccc([N+](=O)[O-])cc2)C1=O (centres undefined) the Potency was inconclusive [inhibitor, single point].
With O=C1C2CCCN2C(c2ccccc2)N1c1nccs1 (centres undefined) the “activity change, negative = growth inhibition” value was inactive: 2.59%.
With O=C(/C=C/c1ccc(Cl)cc1Cl)Nc1cccc(S(=O)(=O)NC2=NCCC2)c1 the Potency was inconclusive [inhibitor, single point].
For Cc1occc1C(=O)Nc1sc2c(c1C(N)=O)CCC(C(C)(C)C)C2 (centres undefined), the Potency was inconclusive [inhibitor, partial curve].
With CCCN(Cc1cccs1)C(=O)Nc1cc(Cl)c(OC)cc1OC the Potency was inconclusive [inhibitor, single point].
In the case of CC1=C(C(=O)OCCC(C)C)C(c2ccc3c(c2)OCO3)NC(=O)N1 (centres undefined), the Potency is reported as inconclusive [inhibitor, single point].
In the case of O=C(COC(=O)c1ccccc1C(=O)c1ccccc1)Nc1ccc(SC(F)F)cc1, the Potency is reported as inconclusive [inhibitor, partial curve].
For CCOc1ccccc1C(=O)Nc1nnc(Cc2ccc(OC)c(OC)c2)s1, the Potency was inconclusive [inhibitor, partial curve].
With CCOC(=O)C1(Cc2cccc(F)c2)CCN(Cc2c(C)nn(CC)c2C)CC1 the Potency was inconclusive [inhibitor, single point].
In the case of Cc1ccc(S(=O)(=O)N(C)C)cc1NC(=O)COC(=O)c1c(-c2ccccc2)noc1C, the Potency is reported as inconclusive [inhibitor, partial curve].
For O=C(COC(=O)c1cc(-c2cccs2)nc2ccccc12)c1ccccc1, the Potency was inconclusive [inhibitor, partial curve, poor fit].
In the case of O=C(Nc1nc(-c2cccs2)cs1)c1ccc([N+](=O)[O-])o1, the Potency is reported as active: 20.6 µM.
In the case of C[C@H](NC(=O)c1cc2c([nH]c3ccccc32)c(-c2ccccc2)n1)C(=O)O, the Potency is reported as inconclusive [inhibitor, single point].
For O=C(Cc1ccc(NC(=O)C2CCCN(C(=O)C3CC3)C2)cc1)Nc1ccc(C(=O)N2CCOCC2)cc1 (centres undefined), the “activity change, negative = growth inhibition” value was inactive: -6.39%.
With O=c1[nH]nnc2cc(Cl)ccc12 the “activity change, negative = growth inhibition” value was inactive: -6.89%.
For CC1(C(=O)Nc2cnc3ccccc3c2)CCN1C(=O)C/C=C/c1ccccc1 (centres undefined), the Potency was active: 6.51 µM.
In the case of CCOC(=O)c1oc2ccc(S(=O)(=O)n3nc(-c4ccccc4OC)cc3N)cc2c1C, the Potency is reported as active: 5.17 µM.
In the case of O=C(NCC(=O)N(CCN1CCOCC1)C(C(=O)NC1CCCC1)c1ccccc1)c1cccs1 (centres undefined), the “activity change, negative = growth inhibition” value is reported as inactive: -4.66%.
In the case of FC(F)(F)c1ccccc1Cc1c(-c2ccccc2)nc2c3ccccc3ccn12, the Potency is reported as inconclusive [inhibitor, single point].
In the case of C=COc1ccc(N2C(=O)c3ccccc3OC2C)cc1 (centres undefined), the Potency is reported as active: 20.6 µM.
For COc1ccccc1CNc1ccc2c(c1)CCC2, the Potency was active: 10.3 µM.
With CC(=O)c1ccc(N2CCN(C(=O)CCc3ccccc3)CC2)cc1 the Potency was inconclusive [inhibitor, single point].
For CCCCC(=O)Nc1nnc(C2=COCCO2)o1, the “activity change, negative = growth inhibition” value was inactive: 8.29%.
In the case of COCC(=O)Nc1ccc(N2CCCC2)c(S(=O)(=O)Nc2ccccc2OC)c1, the “activity change, negative = growth inhibition” value is reported as inactive: -24.2%.
With CCc1ccccc1CC1CN(Cc2ccccc2)Cc2ccccc2N1c1ccc(OC)cc1 (centres undefined) the Potency was active: 11.6 µM.
For O=C(NCCCc1ccccc1)C(=O)NCC1OCCN1S(=O)(=O)c1ccccc1 (centres undefined), the Potency was inconclusive [inhibitor, single point].
In the case of COc1ccc(C(=O)/C=C2\Sc3ccccc3N2C)cc1, the Potency is reported as inconclusive [inhibitor, partial curve].
In the case of Cc1nc2cc3ccccc3cc2n1C, the activity change, negative = growth inhibition is reported as inconclusive: -30.4% [inhibitor].
For Cc1noc(C)c1-c1nc(Nc2ccncc2)c2ccccc2n1, the Potency was inconclusive [inhibitor, single point].
With COc1ccc(OC)c(/C=N/NC(=O)c2csc3ccccc23)c1 the Potency was inconclusive [inhibitor, single point].
In the case of CSc1ccc(C(=O)C2CCCN(C(=O)c3nonc3C)C2)cc1 (centres undefined), the “activity change, negative = growth inhibition” value is reported as inactive: -86%.
For Cc1cc(OC(C)C(=O)Nc2ccccc2C(=O)N2CCCC2)ccc1Cl (centres undefined), the Potency was inconclusive [inhibitor, single point].
With CC(C#N)(NC(=O)CN1CCN(S(=O)(=O)c2cc(C(F)(F)F)ccc2Cl)CC1)C1CC1 (centres undefined) the Potency was inconclusive [inhibitor, single point].
For CCOC(=O)C(C)Sc1nnc(Cn2c(=O)sc3ccccc32)n1-c1ccccc1 (centres undefined), the Potency was inconclusive [inhibitor, full curve, poor fit].
For O=C(N/N=C/c1c[nH]c2ccccc12)c1cccc([N+](=O)[O-])c1, the “activity change, negative = growth inhibition” value was inactive: -28.6%.
With CN(C)S(=O)(=O)c1cccc(NC(=S)N/N=C/C(=O)c2ccccc2)c1 the Potency was inconclusive [inhibitor, single point].
For CCN(c1ccccc1)S(=O)(=O)c1ccc(OC)c(NC(=O)c2ccccc2OC)c1, the Potency was inconclusive [inhibitor, partial curve].
For COc1cccc(-n2c(SCC(=O)Nc3cc(C)ccc3C)nc3c(oc4ccccc43)c2=O)c1, the Potency was active: 13 µM.
For Cc1ccc([N+](=O)[O-])cc1S(=O)(=O)N1CCNCC1, the Potency was inconclusive [inhibitor, single point].
With CCn1c(=O)n(-c2ccc(C)c(F)c2)c(=O)c2sc3ccccc3c21 the Potency was inconclusive [inhibitor, partial curve].
For CCCCCCCCCCCCN1[C@@H](CC(=O)OC)c2cc(F)cc(F)c2S1(=O)=O, the Potency was active: 18.4 µM.
In the case of CCOc1ccc(CCN2C(=S)N([C@@H](CC(C)C)CN3CCC[C@@H]3CN3C(=S)NC[C@@H]3CC(C)C)C[C@@H]2Cc2ccc(O)cc2)cc1, the Potency is reported as active: 11.6 µM.
For COc1ccc(-c2cc(C(=O)Oc3ccccc3)c3cc(C)ccc3n2)cc1, the Potency was active: 5.17 µM.
With COc1cccc(CN2CCc3nc(Nc4ccc5c(c4)OCCO5)ncc3C2)c1 the Potency was inconclusive [inhibitor, single point].
With CCC1=NN(C(=O)c2ccc([N+](=O)[O-])cc2)C(O)(c2ccccc2)C1 (centres undefined) the Potency was inconclusive [inhibitor, single point].
In the case of CC(C)Oc1cccc(C(=O)NC(=S)Nc2ccccc2N2CCOCC2)c1, the Potency is reported as inconclusive [inhibitor, single point].
With CCC(CN(C)C)Oc1cc(NCc2ccccc2)c2ncn(C(C)C)c2c1 (centres undefined) the Potency was inconclusive [inhibitor, single point].
In the case of Cc1ccc2cc(C#N)c(N3CCCN(C(=O)C4CCCO4)CC3)nc2c1 (centres undefined), the “activity change, negative = growth inhibition” value is reported as inactive: -0.804%.
With CCOC(=O)c1sc(NC(=O)C(CC)Sc2nnc3c4ccccc4n(CC)c3n2)nc1C (centres undefined) the Potency was inconclusive [inhibitor, full curve].
For COc1ccccc1CNCC(=O)Nc1ccc(N2CCOCC2)cc1, the Potency was inconclusive [inhibitor, single point].
